Assay results reported in PubChem BioAssay AID1347165 (National Center for Advancing Translational Sciences (NCATS), 2019).
Hit rate of the full screen: of about 220,000 compounds, about 5,700 (2.6%) were called active. The shares of active, inactive and inconclusive entries below differ from those in the screen. The call rests on the fitted dose curve; in most records, active means well fitted inhibition curve with a large enough effect; inconclusive means small, poorly fitted or top-dose-only effect; inactive means no such curve, though single readings can be large or run the other way. Potencies of inconclusive entries are doubtful fits and often do not repeat.

molecular target: Lysine-specific demethylase 5B (Homo sapiens) (UniProt Q9UGL1); experiment: Primary screen for KDM5B Histone Demethylases FDH-coupled qHTS; details: FDH-coupled NADH fluorescence (FDH is formaldehyde dehydrogenase); activity change, negative = inhibition: at 57.7 µM (top of the series) unless noted; further: nearly all actives have a fitted effect of over 70% in size; on activity change, negative = inhibition: 0% is about no effect
Chain of UniProt Q9UGL1 (Q9UGL1 whole entry, looked up): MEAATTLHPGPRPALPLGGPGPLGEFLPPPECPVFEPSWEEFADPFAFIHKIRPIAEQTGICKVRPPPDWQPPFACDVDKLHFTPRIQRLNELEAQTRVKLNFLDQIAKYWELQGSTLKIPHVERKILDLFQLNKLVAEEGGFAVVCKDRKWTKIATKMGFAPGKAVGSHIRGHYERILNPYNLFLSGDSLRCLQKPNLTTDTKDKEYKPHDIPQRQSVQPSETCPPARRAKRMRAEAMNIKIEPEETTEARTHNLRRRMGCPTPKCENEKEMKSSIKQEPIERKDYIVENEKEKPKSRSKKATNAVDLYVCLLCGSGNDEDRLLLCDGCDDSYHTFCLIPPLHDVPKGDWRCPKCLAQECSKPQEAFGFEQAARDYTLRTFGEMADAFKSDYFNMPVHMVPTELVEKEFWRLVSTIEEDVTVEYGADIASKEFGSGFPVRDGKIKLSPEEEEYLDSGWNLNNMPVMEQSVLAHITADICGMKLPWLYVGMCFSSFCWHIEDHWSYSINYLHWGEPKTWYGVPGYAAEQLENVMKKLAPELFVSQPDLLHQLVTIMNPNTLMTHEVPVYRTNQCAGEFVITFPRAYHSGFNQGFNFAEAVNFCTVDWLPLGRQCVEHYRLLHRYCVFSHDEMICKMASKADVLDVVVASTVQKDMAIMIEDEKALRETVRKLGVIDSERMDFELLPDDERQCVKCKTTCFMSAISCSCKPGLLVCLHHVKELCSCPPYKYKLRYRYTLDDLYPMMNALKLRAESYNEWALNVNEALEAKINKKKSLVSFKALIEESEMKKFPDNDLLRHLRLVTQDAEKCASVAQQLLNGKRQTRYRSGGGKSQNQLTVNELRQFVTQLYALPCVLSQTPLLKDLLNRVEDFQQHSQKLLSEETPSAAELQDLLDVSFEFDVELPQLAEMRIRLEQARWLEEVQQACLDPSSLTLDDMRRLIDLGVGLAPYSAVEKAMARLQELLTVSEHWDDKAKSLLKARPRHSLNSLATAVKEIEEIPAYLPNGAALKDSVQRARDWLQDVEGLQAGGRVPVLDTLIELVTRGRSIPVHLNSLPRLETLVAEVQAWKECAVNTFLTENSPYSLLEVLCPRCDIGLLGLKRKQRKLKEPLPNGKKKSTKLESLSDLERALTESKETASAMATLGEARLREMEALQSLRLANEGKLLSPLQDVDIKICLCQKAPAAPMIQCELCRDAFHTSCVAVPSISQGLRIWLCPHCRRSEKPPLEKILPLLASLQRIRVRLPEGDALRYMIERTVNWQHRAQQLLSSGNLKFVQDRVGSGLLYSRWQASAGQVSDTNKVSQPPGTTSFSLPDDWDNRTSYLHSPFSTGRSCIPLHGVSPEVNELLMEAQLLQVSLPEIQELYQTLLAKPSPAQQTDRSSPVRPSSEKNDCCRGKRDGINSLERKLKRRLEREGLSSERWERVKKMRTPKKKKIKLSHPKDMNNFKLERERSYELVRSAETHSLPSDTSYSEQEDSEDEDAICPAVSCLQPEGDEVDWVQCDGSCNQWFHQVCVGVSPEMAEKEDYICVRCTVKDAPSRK
Summary of the method: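 Measured: NADH fluorescence change, 30 min, RT. System: KDM5BΔAP 200 nM final, H3K4me3 peptide, α-KG, Fe(II), ascorbate, NAD⁺ plus FDH, pH 7.5 HEPES. Compounds: titrated, 10 min pre-incubation with enzyme.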
Potency means the concentration at half of the fitted maximal effect; tags describe the fitted curve by direction and shape.

Structure (SMILES)	Potency	activity change, negative = inhibition
CCC(C)(C(=O)NC1CCCCC1)N(C(=O)CNC(=O)c1ccccc1)c1ccccc1 (stereo not drawn)	inactive	–
Fc1cnc(N2CCCC(OCc3cccnc3)C2)nc1N1CCOCC1 (stereo not drawn)	active: 28.2 µM	–
COC(=O)c1ccccc1NC(=O)c1ccc2nc(Cc3ccccc3)oc2c1	inconclusive: 25.1 µM [inhibitor, partial curve, poor fit]	–
O=C(NCc1ccc2c(c1)OCO2)c1nc(S(=O)(=O)Cc2ccccc2F)ncc1Cl	inconclusive: 22.4 µM [inhibitor, partial curve, poor fit]	–
O=C(NC1CCN(c2cc(-c3cccs3)[nH]n2)CC1)c1ccc(F)cc1Cl	inconclusive: 20 µM [inhibitor, single point]	–
COc1cc(C2CC(=O)N(Cc3ccc(F)cc3)c3ccccc3S2)cc(OC)c1OC (stereo not drawn)	inconclusive: 28.2 µM [inhibitor, partial curve, poor fit]	–
CCOC(=O)c1nc(Nc2cc(Cl)ccc2OC)c2ccccc2n1	inconclusive: 25.1 µM [inhibitor, partial curve, poor fit]	–
Cn1cc(CNC(=O)c2coc(CN3CCN(C/C=C/c4ccccc4)CC3)n2)cn1	inconclusive: 39.8 µM [inhibitor, single point]	–
COC(=O)c1cc(NC(=O)[C@H](CCS(C)(=O)=O)N2Cc3ccccc3C2=O)cc(C(=O)OC)c1	–	inconclusive: -32.7% [inhibitor]
CCc1ccc(-c2nc3cc(NC(=O)c4cc5ccccc5cc4OC)ccc3o2)cc1	inconclusive: 3.16 µM [inhibitor, full curve, poor fit]	–
Cc1ccc(CNC2(Cc3cc(CO)on3)COC2)o1	inactive	–
O=C(NC1CC1)c1nc(-c2cccc(C(F)(F)F)c2)c2cnccn12	inactive	–
CCc1ncc(CN2CCCC23CCN(c2ccc(C(F)(F)F)cn2)CC3)cn1	inconclusive: 25.1 µM [inhibitor, partial curve]	–
COc1cc(N2C(=O)CSC23C(=O)N(Cc2ccc(C)cc2)c2ccccc23)cc(OC)c1OC (stereo not drawn)	–	inconclusive: -41.3% [inhibitor]
COCCNC(=O)Cc1ccc(N(Cc2cccc(F)c2)C(=O)c2ccco2)cc1	inconclusive: 35.5 µM [inhibitor, single point]	–
COc1ccc(OC)c(/C=N\NC(=O)c2ccc(-c3ccccc3)cc2)c1	inconclusive: 28.2 µM [inhibitor, partial curve, poor fit]	–
CCNC(=O)c1ccc(-c2cc(NC3CCCC3)nc3[nH]ccc23)nc1	inconclusive: 22.4 µM [inhibitor, single point]	–
CC(C)(C)NC(=S)NNC(=O)c1cccc(Br)c1	inactive	–
O=C(c1ccccc1)N1CCC(Cc2nc(C3CCOCC3)no2)CC1	inconclusive: 31.6 µM [inhibitor, single point]	–
CC(=O)N1CCCN(c2ncc(S(C)(=O)=O)c(C3CCCNC3)n2)CC1 (stereo not drawn)	inconclusive: 22.4 µM [inhibitor, partial curve]	–
C=CCNC(=O)N[C@H]1CCN(C(=O)CSC)[C@@H]1C(=O)N[C@@H](Cc1cccs1)C(N)=O	inactive	–
O=C(C[C@@H]1CCNC[C@@H]1Cc1cc(CC2CCCCC2)on1)NCc1ccco1	inconclusive: 25.1 µM [inhibitor, partial curve]	–

Structure (SMILES)	Potency	activity change, negative = inhibition
O=C(/C=C/c1ccc(O)cc1)c1ccc(-c2ccccc2)cc1	inactive	–
O=C(O)c1cnc(NCc2ccccn2)nc1-c1cccc(Cl)c1	inconclusive: 31.6 µM [inhibitor, partial curve, poor fit]	–
COc1ccc(NC(=O)c2ccccc2NS(=O)(=O)c2ccc3c(c2)OCCCO3)cc1	inactive	–
CC[C@@H]1[C@@H](NC(=O)c2oc(COc3ccccc3)cc2C)[C@@H]2CCO[C@H]12	inactive	–
CC(c1nnc(SCC(=O)Nc2ccc(C#N)cc2)n1C)N1C(=O)COc2ccccc21 (stereo not drawn)	inactive	–
Cc1cc2cc(NS(=O)(=O)c3ccc(C(C)(C)C)cc3)ccc2[nH]1	inactive	–
CCN(c1ccc(-c2csc(-c3cccs3)n2)cc1)S(C)(=O)=O	inconclusive: 39.8 µM [inhibitor, single point]	–
O=C(Nc1ccc2c(c1)CN(Cc1ccccc1F)C(=O)CO2)c1ccc(Cl)cc1	inconclusive: 31.6 µM [inhibitor, single point]	–
O=C(Oc1ccc2cc(-c3ccccc3)c(=O)oc2c1)c1ccco1	inconclusive: 17.8 µM [inhibitor, partial curve, poor fit]	–
CS(=O)(=O)N1CC2(CCN(CC3CC3)C2)Cc2ccccc21 (stereo not drawn)	inconclusive: 100 µM [inhibitor, partial curve, poor fit]	–
COc1cc(/C=C/c2nc3cc(Cl)ccc3o2)cc(OC)c1OC	inconclusive: 22.4 µM [inhibitor, partial curve, poor fit]	–
CC(=O)Nc1ccc(NC(=O)c2cccc3c2ccn3C)cc1	inactive	–
CN(Cc1nccs1)c1ccc(-c2nc(-c3ccccc3F)no2)cn1	active: 22.4 µM	–
CCCCOc1cc(/C=C/C(=O)c2ccc3c(c2)OCCO3)ccc1OC	inconclusive: 22.4 µM [inhibitor, partial curve, poor fit]	–
COCc1nncn1C1CCN(S(=O)(=O)c2ccc(C)c(Cl)c2)CC1	inactive	–
CCc1noc(-c2ccn3c(CNC(=O)c4cc(C)cc(C)c4)nnc3c2)n1	inactive	–
CC(C)NC(=O)c1ccc2nccn2c1	active: 141 µM	–
COc1ccc(CCNc2ncnc3c2CN(c2ccc(Cl)cc2)C(=O)N(C)C3)cc1	inconclusive: 31.6 µM [inhibitor, partial curve]	–
Fc1ccc(F)c(Nc2c3c(nc4ccc(Cl)cc24)CCC3)c1	inconclusive: 25.1 µM [inhibitor, partial curve, poor fit]	–
CCN(CC)CCCNC(=O)c1c2c(nc3ccccc13)C(=O)N(C1CCCCC1)C2	inconclusive: 20 µM [inhibitor, partial curve, poor fit]	–
CCOc1cc(/C=N/NC(=O)c2ccc(N(C)S(=O)(=O)c3ccccc3)cc2)ccc1OC	inconclusive: 31.6 µM [inhibitor, partial curve, poor fit]	–
